# According to patent US20220000832A1 (priority 2019, published 2022):
# Values joined by “and” are separate entries in the source; they are usually repeats but may differ in a detail not shown here. Equal values may be shown once. For part of these data: At least one read-out could not be matched to a standard name with certainty. Some results were stated once for a whole list of compounds, not compound by compound.
# Tests used:
# [1] = test system: Melb-a (melanoblast) cells; format: cell-based; settings: for Melanin content compared to negative control (in words): 10 μM
# [2] = test system: melb-a cells (melanoblasts); format: cell-based; settings: for Cell migration rate compared to negative control (in words): 10 μM
# [3] = test system: Melb-a (melanoblast) cells; settings: 10 μM
Compound,Melanin content compared to negative control (in words) [1],Cell migration rate compared to negative control (in words) [2],Melanin content compared to negative control (%) [1],Cell migration rate (%) [2],Cell viability (in words) [3]
"O=Cc1ccc(COCc2ccccc2)o1 [Example 2, 5-((benzyloxy)methyl)furan-2-carbaldehyde]",lowered,increased,–,–,–
"C=CCOCc1ccc(C=O)o1 [Example 3, 5-((allyloxy)methyl)furan-2-carbaldehyde]",lowered,increased,–,–,–
"O=Cc1ccc(C(=O)NCc2ccccc2)o1 [Example 4, N-benzyl-5-formylfuran-2-carboxamide]",lowered,increased,–,–,–
"CCCNC(=O)c1ccc(C=O)o1 [Example 5, 5-formyl-N-propylfuran-2-carboxamide]",lowered,increased,–,–,–
"CNC(=O)c1ccc(C=O)o1 [Example 6, 5-formyl-N-methylfuran-2-carboxamide]",lowered,increased,–,–,–
"O=Cc1ccc(C(=O)OCc2ccccc2)o1 [Example 7, Benzyl 5-formylfuran-2-carboxylate]",significantly increased,increased,–,–,–
"C=CCOC(=O)c1ccc(C=O)o1 [Example 8, allyl 5-formylfuran-2-carboxylate]",significantly increased,increased,–,–,–
"COC(=O)c1ccc(C(OC)OC)o1 [Example 9, methyl 5-(dimethoxymethyl)furan-2-carboxylate]",significantly increased,increased,138.86 ± 5.18%,302.95 ± 33.65% and 246.15 ± 4.71%,–
"COC(=O)c1ccc(C=O)o1 [Example 10, methyl 5-formylfuran-2-carboxylate]",significantly increased,increased,136.26 ± 1.19% and 160.87 ± 4.87%,296.19 ± 19.42% and 254.44 ± 8.99%,–
"CCOC(=O)c1ccc(CO)o1 [Example 11, ethyl 5-(hydroxymethyl)furan-2-carboxylate]",significantly increased,increased,–,–,low compared to when the compound of Example 1 was treated
"OCc1ccc(CO)o1 [Example 12, Furan-2,5-diyldimethanol]",significantly increased,increased,–,–,low compared to when the compound of Example 1 was treated
"COC(=O)c1ccc(CO)o1 [Example 13, methyl 5-(hydroxymethyl)furan-2-carboxylate]",significantly increased,increased,–,–,low compared to when the compound of Example 1 was treated
"O=C(O)c1ccc(CO)o1 [Example 14, 5-(hydroxymethyl)furan-2-carboxylic Acid]",significantly increased,increased,–,–,low compared to when the compound of Example 1 was treated
"CC(O)c1ccc(COC2CCCCO2)o1 (stereo not drawn) [Example 15, 1-(5-(((tetrahydro-2H-pyran-2-yl)oxy)methyl)furan-2-yl)ethanol]",significantly increased,increased,–,–,low compared to when the compound of Example 1 was treated
"CC(O)c1ccc(CO)o1 (stereo not drawn) [Example 16, 1-(5-(hydroxymethyl)furan-2-yl)ethanol]",significantly increased,increased,–,–,low compared to when the compound of Example 1 was treated
"O=Cc1ccc(C=O)o1 [Example 17, Furan-2,5-dicarbaldehyde]",–,increased,–,–,–
"CC(O)c1ccc(C=O)o1 (stereo not drawn) [Example 18, 5-(1-hydroxyethyl)furan-2-carbaldehyde]",significantly increased,increased,160.19 ± 0.47% and 134.57 ± 0.69%,–,low compared to when the compound of Example 1 was treated
"CC(=O)OC(C)c1ccc(C=O)o1 (stereo not drawn) [Example 19, 1-(5-formylfuran-2-yl)ethyl Acetate]",increased,–,–,–,–
"CCC(O)c1ccc(C=O)o1 (stereo not drawn) [Example 20, 5-(1-hydroxypropyl)furan-2-carbaldehyde]",increased,–,–,–,–
"CCC(OC(C)=O)c1ccc(C=O)o1 (stereo not drawn) [Example 21, 1-(5-formylfuran-2-yl)propyl Acetate]",increased,–,–,–,–
